Results on 1 molecule are retold here after US20180072782A1 (UNIVERSITY OF GEORGIA RESEARCH FOUNDATION, published 2018).

The assay addresses T1, NCKAP1 overexpressed in MDA-MB-231 cells (pCDH-CMV-MCS-EF1-PURO-NCKAP1 / HA-NCKAP1 overexpression vector) (human, UniProt Q9Y2A7 2-1128).
T1 construct: The lysate also holds endogenous NCKAP1
T1 sequence (looked up): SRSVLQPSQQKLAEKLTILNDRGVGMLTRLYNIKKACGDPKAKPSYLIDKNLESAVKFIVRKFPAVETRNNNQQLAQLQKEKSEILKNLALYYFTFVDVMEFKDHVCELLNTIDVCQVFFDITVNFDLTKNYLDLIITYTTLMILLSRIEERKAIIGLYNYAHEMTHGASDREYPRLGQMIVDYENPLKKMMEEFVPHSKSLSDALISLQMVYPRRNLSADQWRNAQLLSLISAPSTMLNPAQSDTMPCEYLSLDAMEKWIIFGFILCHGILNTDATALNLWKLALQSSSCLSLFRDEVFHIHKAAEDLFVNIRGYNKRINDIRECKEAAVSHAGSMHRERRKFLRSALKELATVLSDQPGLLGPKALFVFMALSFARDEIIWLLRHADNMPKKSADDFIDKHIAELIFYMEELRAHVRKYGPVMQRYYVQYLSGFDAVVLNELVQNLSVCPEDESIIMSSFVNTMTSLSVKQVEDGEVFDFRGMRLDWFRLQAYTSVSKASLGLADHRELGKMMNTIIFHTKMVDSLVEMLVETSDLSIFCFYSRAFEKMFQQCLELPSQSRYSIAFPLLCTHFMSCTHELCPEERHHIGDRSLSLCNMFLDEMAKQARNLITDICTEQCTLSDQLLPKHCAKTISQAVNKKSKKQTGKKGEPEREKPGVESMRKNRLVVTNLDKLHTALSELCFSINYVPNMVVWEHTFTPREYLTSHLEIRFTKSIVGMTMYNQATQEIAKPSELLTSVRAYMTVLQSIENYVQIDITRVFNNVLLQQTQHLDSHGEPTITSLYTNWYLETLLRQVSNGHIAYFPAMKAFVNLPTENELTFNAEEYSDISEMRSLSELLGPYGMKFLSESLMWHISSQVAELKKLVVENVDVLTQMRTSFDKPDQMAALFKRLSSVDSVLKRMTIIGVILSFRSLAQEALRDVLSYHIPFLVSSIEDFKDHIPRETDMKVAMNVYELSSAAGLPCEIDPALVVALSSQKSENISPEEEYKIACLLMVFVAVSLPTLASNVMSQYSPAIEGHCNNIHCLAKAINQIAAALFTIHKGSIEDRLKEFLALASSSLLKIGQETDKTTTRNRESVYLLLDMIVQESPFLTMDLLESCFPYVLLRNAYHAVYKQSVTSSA
Put plainly: GST pull-down from lysate of NCKAP1-overexpressing MDA-MB-231 cells, western blot. A general note: A western blot detects proteins with antibodies after separation by electrophoresis.

B1: GST alone (other)
chain: not shown
notes: Negative control of the pull-down
Consider B1, for which the binding result was “no binding”.
